Some of the results follow.

T1: UNK ZnF1-3 (human, UniProt Q9C0B0 31-174)
T1 sequence: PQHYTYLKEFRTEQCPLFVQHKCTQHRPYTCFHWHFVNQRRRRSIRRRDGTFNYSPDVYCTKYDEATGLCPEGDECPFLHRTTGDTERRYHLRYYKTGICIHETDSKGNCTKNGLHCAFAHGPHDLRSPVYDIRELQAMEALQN

B1: 97025942_97026400_1522_CDS_ENSG00000121152_ENST00000240423|human|control|control (ssRNA)
RNA: GGGAGUUCUACAGUCCGACGAUCGUUGAAAUCUGUAGGAAGGGUGGUAGCUCUCCAAUUCUGGUUCUCCAAAGUGGACUUGGUCAGAAUAGUAGCAGCCUUUGUUUUUCUAAAAUAUACAUCAAAGUCAAUAUCAUCUUCAAACAACAGAGGAUUGAGCAUCA
B2: chr7:7679991:7679992:-_ENSG00000106399_ENST00000396682|hu_hu|hu_hu_hu_mus_False|18_38 (ssRNA)
RNA: GGGAGUUCUACAGUCCGACGAUCUGGGAUGAAUCUUUUCCAGCUUCCCCACGAAGCACACGGGCCGGUCGAUAUACUGUGGUAACAUGCUGGCGUUGAUGCGCGACUUGGGGAGCUCCAUCAUGUCCUCCAUGAUUCUGCCGCCAACAGAGGAUUGAGCAUCA
B3: chr18:24050344:24050345:+_ENSMUSG00000024277_ENSMUST00000025127|mus_mus|FALSE|FALSE (ssRNA)
RNA: GGGAGUUCUACAGUCCGACGAUCUGGCCUGUAGGGUACACACCCUCAAGUCCCCCUUUAGUAUGGAUUCCUUAAUGUGAAUUGGAGGACUUGGGUUGAAGCUCUUACAAGGAGGAAGAGGGAAGAGGCAGGAAGCCUCGUGCCCAACAGAGGAUUGAGCAUCA
B4: 56791868_56792582_1945_3pUTR_ENSMUSG00000028431_ENSMUST00000030140|mouse|control|control (ssRNA)
RNA: GGGAGUUCUACAGUCCGACGAUCGAUGAACAAAUCGAACAGGAAUUCCUUCAGAAUUCUUCCAGGGUUCCACAGCCAGAGAAGGUGACUCCCAAAGGUACUUGAGCACCUGGCCAUCAGCCAGCUGUACUGCUAAUGACUUGGCAACAGAGGAUUGAGCAUCA
B5: chr17:62495851:62495852:-_ENSG00000108654_ENST00000581693|hu_hu|motif|central (ssRNA)
RNA: GGGAGUUCUACAGUCCGACGAUCUCACUGUACAUUUACUUUUGUGAAAACACUGCCUGCAUUUUCUAGUACAAAAAAAACCGGAAAAUUGUUUCAGGAAUGUAGAGAAAUAUCCAACUUAAAUAGCGAAAAAGUGCACCAUAACAACAGAGGAUUGAGCAUCA
B6: chr17:65740002:65740003:+_ENSG00000130935_ENST00000581375|hu_hu|hu_hu_hu_mus_False|78_88 (ssRNA)
RNA: GGGAGUUCUACAGUCCGACGAUCAACAAAUCUUUCUUCCCUGGACGCAAGAGUUCACAUAAAAGAGAAAAAAUAUAUAUCCAUCAAGUUAGGUGUGGUGGCCACACCUUUACUCCCAGCACUUUGGGAGGUGGAUCUCUGAGUCAACAGAGGAUUGAGCAUCA
B7: chr15:38777322:38777323:+_ENSG00000171262_ENST00000397609|hu_hu|FALSE|FALSE (ssRNA)
RNA: GGGAGUUCUACAGUCCGACGAUCAGAAAAAAAUGAUUCACAACAACUGCCUACUAAAUACAACUGGAAGUGCCUUUCCCUAUUUUGUAAAAUCGAAUGAAAAACCCACAAAACACAUCCACAGCAAUACAGGUGAGGCAAGGGCAACAGAGGAUUGAGCAUCA
B8: chr7:141443734:141443735:+_ENSG00000106028_ENST00000265304|hu_mus|FALSE|FALSE (ssRNA)
RNA: GGGAGUUCUACAGUCCGACGAUCCCCCUUUUUCACAUACUGAUAUGCCACAUCUCUGAGGCCUGGUCGAAACACUGAUAUUCUGUGCCACGUCGUCUUCUGACUAACGUCACCCAUUUGGUAUACUUCACUAUCCCCUGAUCGCAACAGAGGAUUGAGCAUCA
B9: chr4:95690885:95690886:+_ENSMUSG00000028572_ENSMUST00000156910|mus_mus|mus_mus_mus_hu_False|8_8 (ssRNA)
RNA: GGGAGUUCUACAGUCCGACGAUCUUUAGAAAAUGUUAAAUACCAUGCUAAAAUAUUUUCAAAGGCUUAUUUUAUUUUACCAGAAGUCACAGGCAAGCAGACACUACAAGAAUAUAUGAAAAUGAAACAACAGUGUAUAACUGUCAACAGAGGAUUGAGCAUCA
B10: chr13:30959905:30959906:-_ENSMUSG00000021357_ENSMUST00000021785|mus_hu|motif|central (ssRNA)
RNA: GGGAGUUCUACAGUCCGACGAUCAUGGAUACUUCCAAACAAGUCAGGGGAAGAAACAUCAACAGAGAGAUGUGUAGUAUCGGUAUCUGCAUCAGGCUUGGUGCUCAACUGUUCCAGACAGUAUAUAAAAACCUGCAUUAUAUUCAACAGAGGAUUGAGCAUCA
B11: chr1:25167287:25167288:+_ENSG00000169504_ENST00000374379|hu_hu|FALSE|FALSE (ssRNA)
RNA: GGGAGUUCUACAGUCCGACGAUCACUGUAUGCAUUAGUUAGGUAUCUCCAGAUGCCAGUCAUUUCUUUUGGAAUAUCAAAGUUGCGAUAUUUUUUGGCCACCACCUUGACAAUAUGCAGUUUGGGCAGCAGGUUGCAAUCAGCCAACAGAGGAUUGAGCAUCA
B12: chr4:40680873:40680874:+_ENSMUSG00000028410_ENSMUST00000030118|mus_mus|FALSE|FALSE (ssRNA)
RNA: GGGAGUUCUACAGUCCGACGAUCAUUCUGAUAUCCAGAUUUAAGCAUGUAAGCAUGUGACUUCAAAACAUACAACAAAUCUAUUCAUAAUUUGCUAUACUACCAACAUUAAAUUGCAGUUACGUUGGAGCCUAAGUCGAAUAGCAACAGAGGAUUGAGCAUCA
B13: chr1:225611761:225611762:-_ENSG00000143815_ENST00000272163|hu_mus|hu_hu_hu_mus_True|58_58 (ssRNA)
RNA: GGGAGUUCUACAGUCCGACGAUCCCAGGCCAUCGGCCUCUGACCACUUCACCCUCAACAAACUUCCUACUUGGCAUUUUCUAUAAUUAGUCUGGCCGCGCUCCGGCGGGAACUCCAGCCACUCCAGGACAGUCACCAGCAGCCCAACAGAGGAUUGAGCAUCA
B14: chr4:3761713:3761714:-_ENSMUSG00000028234_ENSMUST00000103009|mus_mus|FALSE|FALSE (ssRNA)
RNA: GGGAGUUCUACAGUCCGACGAUCCUCAACUCCCGGCUCAAUACUGAUGGAAGUAAUCUGCUUAACAAUCUCAGAAGGACUAUGUAAAUCAAUGAGUCGCUUGUGGAUCCUCAUCUGGAAUCGAUCCCAGGUCUUGGAACCUUCCAACAGAGGAUUGAGCAUCA
B15: chr8:30040655:30040656:+_ENSG00000104671_ENST00000221114|hu_mus|FALSE|FALSE (ssRNA)
RNA: GGGAGUUCUACAGUCCGACGAUCAACCGAGCACCACUGACAUCUUCUCAGUUCUUAACUGGGGUUGAGCUGCCUUUCAUCGUCUUCUUCAGGUGGUGGUAAUUGGGCAAGAUCUUCAUCAGGAAAUCCAGUUGUAGAGUCUGGCAACAGAGGAUUGAGCAUCA
B16: chr11:103723314:103723315:-_ENSMUSG00000034187_ENSMUST00000103075|mus_hu|FALSE|FALSE (ssRNA)
RNA: GGGAGUUCUACAGUCCGACGAUCCACCAGCAGCUCCCCAUCAUCUAGAACUCGAGUAACUGGGUCACCCCAUUUGAUGAUACCGUUCAUAAUGUAACUUGCAUAAUCUUCUUGGUUUGUGCCAAAGGCUGGUUUGAUAUCAUUCAACAGAGGAUUGAGCAUCA
B17: chr6:55002191:55002192:+_ENSMUSG00000029777_ENSMUST00000003572|mus_mus|FALSE|FALSE (ssRNA)
RNA: GGGAGUUCUACAGUCCGACGAUCGUGGUCUGCUCGGAAGCACUCUCCGUUCUUCACGUCCUUCACCAUGAAGUCAGCAAAUUUGUCUACGUGGCCAGAGGUCUUUAAAACUGGCUCAGGGGUGAGCAUGGUGCAGUCAAUCUCCAACAGAGGAUUGAGCAUCA
B18: chr4:115894766:115894767:+_ENSMUSG00000028698_ENSMUST00000030464|mus_hu|mus_mus_mus_hu_True|58_98 (ssRNA)
RNA: GGGAGUUCUACAGUCCGACGAUCUUCCACACGGAAAGUACUUGGGGGUUUUCCAACGGCCAGUACCAGUCCGGCCAACUACUAGGAACAGGGUCCUCCCCCUCUCUCCUACAGAACACAACAAAAUGCCCCCGAACUUUCAAGCAACAGAGGAUUGAGCAUCA
B19: chr11:4040516:4040517:+_ENSMUSG00000003581_ENSMUST00000003677|mus_mus|FALSE|FALSE (ssRNA)
RNA: GGGAGUUCUACAGUCCGACGAUCUCUCCUGUAGUGUAGGCUGGGAAGGGUCCGUCCCGAACUGCAGACUUUCCACUGGGGCAGUUAGUCAUCUGAGUAGUGGUUCCCCAGGACGUUGAACUUGCACAGUGGGCAGGUCUGUUGCAACAGAGGAUUGAGCAUCA
B20: chr2:125074910:125074911:+_ENSMUSG00000027203_ENSMUST00000082122|mus_mus|FALSE|FALSE (ssRNA)
RNA: GGGAGUUCUACAGUCCGACGAUCCUUUACAGCCAAGCCAGAACGUGGAGCUACUCUUCCAUAGCACCCAGAAGGGACAGCUAUCUGAAUGUCUGUCUUCACGAUGGCUUUCUCCAUGGGUGAUAUUGUAUAAUCAUAGGCACUCAACAGAGGAUUGAGCAUCA
B21: chr16:16313726:16313727:-_ENSMUSG00000022789_ENSMUST00000023477|mus_mus|motif|central (ssRNA)
RNA: GGGAGUUCUACAGUCCGACGAUCAUACAUUGAUUAUGUGAGGAACUUGCCAGGCUCCAUCUUUUAAAGCCAGGUCAGUCGGUAUAAAUAGUGCAUGCAUUAUAGUCAUGAAAUGUCCUGGAGCUUCCUUUCUGAGGACUACAGCAACAGAGGAUUGAGCAUCA
B22: chr5:64942916:64942917:+_ENSG00000113597_ENST00000231526|hu_hu|FALSE|FALSE (ssRNA)
RNA: GGGAGUUCUACAGUCCGACGAUCAGCAUUGGAGGCUGAAAGAUUUAAACGCUGAGAACUUGUCUGAAGAUCAGCUUUUACUAAUAUGUCUUUUACAACUUGAUUGCUAUCAUUAUGAACGCUGAUAUAACUGGAAAAGGUCUCCAACAGAGGAUUGAGCAUCA

In the experiment the target is T1, UNK ZnF1-3. Briefly: nsRBNS (natural sequence RNA bind-n-seq); RBNS binding buffer (assumed for nsRBNS): 25 mM Tris pH 7.5, 150 mM KCl, 3 mM MgCl2, 0.01% Triton X-100, 500 ug/ml BSA, 20 U/ml SUPERase-In, 4 C; UNK is unkempt and MSI1 is Musashi-1; names of the RNAs are library labels; protein concentration not given here; high values mean tight binding.
Regarding B1, the binding signal turned out to be 1.17 enrichment R.

With B2, the binding signal was determined as 0.754 enrichment R.

B3 had a binding signal of 0.912 enrichment R. Molecule B4 showed a binding signal of 0.472 enrichment R. For the molecule B5, the binding signal was 0.9 enrichment R. For the molecule B6, the binding signal is 0.848 enrichment R. For the molecule B7, the binding signal was found to be 2.04 enrichment R. The figure for B8 is 0.702 enrichment R; for B9 it is 2.01 enrichment R. In turn, B10 gave a binding signal of 1.01 enrichment R. Molecule B11 yielded a binding signal of 1.29 enrichment R.

Molecule B12 displayed a binding signal of 0.48 enrichment R. Regarding B13, the binding signal came out at 1.26 enrichment R. In the case of B14, the binding signal came out at 1.1 enrichment R.

As to B15, the binding signal was found to be 1.47 enrichment R. For B16, the binding signal was found to be 0.925 enrichment R. In the case of B17, the binding signal amounted to 0.913 enrichment R. For B18, the binding signal was determined as 1.22 enrichment R. The value for B19 was 0.442 enrichment R; that for B20 was 0.705 enrichment R; that for B21 was 0.798 enrichment R. The figure for B22 is 1.36 enrichment R.
